Source: the supplement of paper PMC10338343
± gives the standard deviation. This is a selection; strong and weak results do not stand in their true shares.

System: MIWI (PIWIL1) piRISC loaded with L1MC piRNA (30 nt)
Assay: pre-steady-state target cleavage rate (min^-1); MIWI and MILI are mouse PIWI proteins and EfPiwi is from a freshwater sponge; tags in brackets are library labels; higher = faster piRNA-guided slicing of the target
Conditions: guide: L1MC piRNA 5'p-UAACUAAAUACUAUGCAAGCUGUAGGUCCU
Summary of the method: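 A transcribed, DNA-blocked target RNA library (0.1 nM) and 1 nM active affinity-purified piRISC bearing one synthetic guide were incubated in HEPES–potassium acetate buffer at 33 °C for 0–8 or 0–960 min, either with or without 500 nM GTSF1 partner protein. Uncleaved targets were sequenced, normalised to depth and to weakly complementary targets, and pooled over three trials, with k3 capped at 0.0001 min^-1. The pre-steady-state cleavage rate was derived with a burst-and-steady-state fit.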

[1] = auxiliary factor: 500 nM mouse GTSF1
[2] = auxiliary factor: none (no GTSF1)

Sequence | pre-steady-state target cleavage rate [1] | pre-steady-state target cleavage rate [2]
UCCACCUUCUGCUUGCAUAGUAUUUAGUUA | 0.761 ± 0.028 | 0.0489 ± 0.0085
UCGACGUACAGCUUGCAUAGUAUUUUCAAA | 0.424 ± 0.06 | 0.00288 ± 0.0027
ACGACCUACAGCUUGCAUACUAUUUAGUUA | 0.453 ± 0.022 | 0.04 ± 0.0082
UCCACCAACAGCUUGCAUAGUAUUUACUUA | 0.249 ± 0.028 | 0.0271 ± 0.0046
UCCUGGAUGUGCUUGCAUAGUAUUUAGAUUA | 0.178 ± 0.032 | 0.0149 ± 0.0038
UCCUGGUACACCUUGCUUAGUAUUUAGUUA | 0.295 ± 0.056 | 0.0101 ± 0.0025
UCCUGCUAACAGCUUGCAUAGUAUUUAGUUA | 0.617 ± 0.052 | 0.0487 ± 0.0083
UGGACCAACAGCUUGCAUAGUAUUUUGUUA | 0.924 ± 0.055 | 0.0385 ± 0.0065
UGGACCUACAGCUUCCAUAGUAUUUAGUUA | 0.0563 ± 0.013 | 0.00426 ± 0.0014
UCCUCCUACUGCUUGCAUAGUAUUAAGUUA | 0.414 ± 0.025 | 0.0179 ± 0.0024
UGCACCUACAGCUUGCAUAGAAUUUAGUUA | 0.563 ± 0.047 | 0.0199 ± 0.0054
UGGACCAACAGCUUGCAUAGUAUAUAGUUA | 0.881 ± 0.04 | 0.0312 ± 0.0071
UCGACCUACUGCUUCCAUAGUAUUUAGUUA | 0.0526 ± 0.0098 | 0.00494 ± 0.001
UCCACCUACAGCUUGCAAAGUAUUAAGUUA | 0.431 ± 0.034 | 0.00855 ± 0.0023
UGGACGUACAGCUUGGAUAGUAUUUAGUUA | 1.4 ± 0.054 | 0.0597 ± 0.01
AGGAGGUACAGCUUGCAUAGUAUUUUCAAA | 0.206 ± 0.048 | 0.00393 ± 0.002
UCCACCUACAGCUUGCAUAGUAUUUAGAAA | 0.451 ± 0.066 | 0.00492 ± 0.0031

Sequence | pre-steady-state target cleavage rate [1] | pre-steady-state target cleavage rate [2]
UCCUGGAACAGCUUGCAUAGAAUUUAGAUA | 0.245 ± 0.048 | 0.00865 ± 0.0035
UCCUGGAUGAGCUUGCAUAGUGAUUUAGUUA | 0.00866 ± 0.0032 | 0.00335 ± 0.0017
UCGACCUACAGCUUGCAUAGUUUUUAGAAA | 0.287 ± 0.035 | 0.00673 ± 0.0029
UCGACGUACAGCUUGCAUACUAUUUAGUUA | 0.309 ± 0.011 | 0.0391 ± 0.0076
UGGACCUACAGCUAGCAUAGUUUUUAGUUA | 0.38 ± 0.017 | 0.0216 ± 0.0055
UCCUGGUACAGCUUGCAUAGUAUUUAGAAA | 0.262 ± 0.033 | 0.00635 ± 0.003
UGGACCUACAGCUUGCAUAGUAUUAUAGUUA | 1.24 ± 0.062 | 0.052 ± 0.011
UGGACCUACACCUUGCAUUGUAUUUAGUUA | 0.637 ± 0.026 | 0.0285 ± 0.0056
UCCAGCUACAGCUUGGAUAGUAUUUAGUUA | 1.31 ± 0.12 | 0.0456 ± 0.0069
UGGACCUACAGCUUGCAUAGUUUUUAGAAA | 0.165 ± 0.028 | 0.00934 ± 0.0035
UCCUGCUACAGCUUCCAUAGUAUUUAGUUA | 0.0769 ± 0.02 | 0.00307 ± 0.0026
UCCUCCUUCAGCUUGCAUUGUAUUUAGUUA | 1.02 ± 0.037 | 0.0257 ± 0.0061
UCCUGGUUCAGCUUGCAUAGUAUUUUGUUA | 0.611 ± 0.047 | 0.082 ± 0.018
UGGACCUACAGCUUGCAUAGUAUUAACUUA | 0.106 ± 0.014 | 0.00947 ± 0.0029
AGGACCUACAGCUUGCAUAGUAUUUAUGUUA | 0.662 ± 0.057 | 0.0656 ± 0.013
UCCUGGAACAGCUUGGAUAGUAUUUAGUUA | 1.18 ± 0.043 | 0.0808 ± 0.015
